# Data from PubChem BioAssay (NCATS).
# Values joined by “and” are separate entries in the source; they are usually repeats but may differ in a detail not shown here. Equal entries are not always repeated. The inconclusive results got no clear call from the source; some entries with a clear call stand among them for comparison. For some of these results: Where the call is inconclusive, the potency comes from a doubtful curve fit. Active and inactive are the calls of the source. Calls come from the whole dose curve; as a rule, active = well fitted curve in the direction sought with a large enough effect; inconclusive = small, poorly fitted or top-dose-only effect, or another doubt; inactive = no such curve, though single readings can be large; an effect the other way counts as inactive or inconclusive.
# How the values were obtained:
# [1] = qHTS of pediatric cancer cell lines to identify multiple opportunities for drug repurposing: Primary screen for DAOY cells (AID 1347090); conditions: DAOY medulloblastoma viability, CellTiter-Glo luminescence, 48 h; activity change, negative = cytotoxic: at 46 µM (top of the series); note: nearly all actives have a fitted effect of over 55% in size
# In short: (§1)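 Cell viability, CellTiter-Glo luminescence; 500-1,000 cells/well, 8- or 11-point titration, 48 h compound exposure at 37 degrees C, 5% CO2. Controls: DMSO neutral, bortezomib 2.3 µM final as positive.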
# [2] = qHTS of pediatric cancer cell lines to identify multiple opportunities for drug repurposing: Primary screen for SJ-GBM2 cells (AID 1347091)
# In short: as §1
# [3] = qHTS of pediatric cancer cell lines to identify multiple opportunities for drug repurposing: Primary screen for NB-EBc1 cells (AID 1347095)
# In short: (§2)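 Cells seeded at 500-1,000 cells/well in growth media, rested 5 hours at 37 degrees C, 5% CO2, then dosed; MIPE compounds at 11-point (from 0.78 nM) and NPC at 8-point (from 0.59 nM) final concentrations. Viability by CellTiter-Glo luminescence after 48 hours.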
# [4] = qHTS of pediatric cancer cell lines to identify multiple opportunities for drug repurposing: Primary screen for U-2 OS cells (AID 1347096); note: nearly all actives have a fitted effect of over 50% in size
# In short: (§3)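 Cells (500-1,000/well) rested 5 h, then received compounds for 48 h; metabolically active cells were measured by CellTiter-Glo luminescence. Final concentrations spanned up to 46 µM (MIPE, 11-point) or 0.59 nM-46 µM (NPC, 8-point) in primary screens, 11-point in follow-ups.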
# [5] = qHTS of pediatric cancer cell lines to identify multiple opportunities for drug repurposing: Primary screen for SK-N-SH cells (AID 1347098); note: nearly all actives have a fitted effect of over 65% in size
# In short: as §3
# [6] = qHTS of pediatric cancer cell lines to identify multiple opportunities for drug repurposing: Primary screen for NB1643 cells (AID 1347099); note: nearly all actives have a fitted effect of over 50% in size
# In short: as §2
# [7] = qHTS of pediatric cancer cell lines to identify multiple opportunities for drug repurposing: Primary screen for LAN-5 cells (AID 1347100); conditions: LAN-5 neuroblastoma viability, CellTiter-Glo luminescence, 48 h; activity change, negative = cytotoxic: at 46 µM (top of the series)
# In short: as §3
# [8] = qHTS of pediatric cancer cell lines to identify multiple opportunities for drug repurposing: Primary screen for BT-12 cells (AID 1347101); note: nearly all actives have a fitted effect of over 25% in size
# In short: as §3
# [9] = qHTS of pediatric cancer cell lines to identify multiple opportunities for drug repurposing: Primary screen for OHS-50 cells (AID 1347103); note: nearly all actives have a fitted effect of over 40% in size
# In short: as §3
# [10] = qHTS of pediatric cancer cell lines to identify multiple opportunities for drug repurposing: Primary screen for RD cells (AID 1347104); note: nearly all actives have a fitted effect of over 55% in size
# In short: as §2
# [11] = qHTS of pediatric cancer cell lines to identify multiple opportunities for drug repurposing: Primary screen for Rh30 cells (AID 1347107); note: nearly all actives have a fitted effect of over 75% in size
# In short: as §3
# [12] = qHTS of pediatric cancer cell lines to identify multiple opportunities for drug repurposing: Primary screen for Rh41 cells (AID 1347108); note: nearly all actives have a fitted effect of over 70% in size
# In short: as §2
# [13] = qHTS of pediatric cancer cell lines to identify multiple opportunities for drug repurposing: Confirmatory screen for NB1643 cells (AID 1347109); conditions: NB1643 neuroblastoma cell viability; activity change, negative = cytotoxic: at 45.9 µM (top of the series); note: nearly all actives have a fitted effect of over 45% in size
# In short: as §3
# [14] = qHTS of pediatric cancer cell lines to identify multiple opportunities for drug repurposing: Primary screen for BT-37 cells (AID 1347094)
# In short: as §2
# [15] = qHTS of pediatric cancer cell lines to identify multiple opportunities for drug repurposing: Primary screen for Rh18 cells (AID 1347102); note: nearly all actives have a fitted effect of over 65% in size
# In short: as §3
# [16] = qHTS of pediatric cancer cell lines to identify multiple opportunities for drug repurposing: Primary screen for MG 63 (6-TG R) cells (AID 1347105); conditions: MG 63 (6-TG R) viability, CellTiter-Glo, 48 h; activity change, negative = cytotoxic: at 46 µM (top of the series); note: nearly all actives have a fitted effect of over 50% in size
# In short: as §2
# [17] = qHTS of pediatric cancer cell lines to identify multiple opportunities for drug repurposing: Primary screen for SK-N-MC cells (AID 1347093); conditions: SK-N-MC viability, CellTiter-Glo luminescence, 48 h; activity change, negative = cytotoxic: at 46 µM (top of the series)
# In short: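 Metabolically active cells were quantified by ATP-dependent luminescence (CellTiter-Glo, 15 min at room temperature) following 48 h treatment. Cells had been plated at 500-1,000 per well and settled for 5 h beforehand.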
# [18] = qHTS of pediatric cancer cell lines to identify multiple opportunities for drug repurposing: Primary screen for Saos-2 cells (AID 1347097); note: nearly all actives have a fitted effect of over 40% in size
# In short: as §2
# [19] = qHTS of pediatric cancer cell lines to identify multiple opportunities for drug repurposing: Primary screen for control Hh wild type fibroblast cells (AID 1347106); note: nearly all actives have a fitted effect of over 55% in size
# In short: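 Viability after 48 h compound treatment at 37C, 500-1,000 cells/well, read as ATP luminescence with CellTiter-Glo. Primary screens used 11-point (MIPE, 0.78 nM-46 µM) or 8-point (NPC, 0.59 nM-46 µM) final concentrations; follow-up screens used 11-point dilutions.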
# [20] = qHTS of pediatric cancer cell lines to identify multiple opportunities for drug repurposing: Primary screen for A673 cells (AID 1347092); conditions: A673 Ewing sarcoma viability, CellTiter-Glo ATP luminescence, 48 h; activity change, negative = cytotoxic: at 46 µM (top of the series); note: nearly all actives have a fitted effect of over 45% in size
# In short: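 A673 cells (500-1,000 cells/well in growth media) were pre-incubated 5 h at 37 degrees C, then exposed to compounds for 48 h. Viability was read as CellTiter-Glo luminescence; concentration-response curves came directly from the primary screen.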
# Potency is the fitted concentration of half-maximal effect; tags give direction and shape of the fitted curve.
smiles,measurement,setting,value
COC(=O)Nc1nc2ccc(C(=O)c3ccccc3)cc2[nH]1,Potency,[1],active: 106 nM and active: 1.18 µM
same,Potency,[2],"inconclusive: 469 nM [cytotoxic, full curve, poor fit]"
same,Potency,[3],"inconclusive: 264 nM [cytotoxic, full curve, poor fit]"
same,Potency,[4],"inconclusive: 1.68 µM [cytotoxic, partial curve] and inconclusive: 9.35 µM [cytotoxic, partial curve]"
same,Potency,[5],"inconclusive: 172 nM [cytotoxic, full curve] and active: 8.57 µM"
same,Potency,[6],"inconclusive: 66.8 nM [cytotoxic, full curve] and inconclusive: 14.8 µM [cytotoxic, partial curve, poor fit]"
same,Potency,[7],"inconclusive: 266 nM [cytotoxic, full curve]"
same,Potency,[8],active: 347 nM and active: 2.43 µM
same,Potency,[9],active: 138 nM and active: 1.53 µM
same,Potency,[10],"inconclusive: 119 nM [cytotoxic, full curve]"
same,Potency,[11],"inconclusive: 6620 nM [cytotoxic, partial curve]"
same,Potency,[12],"inconclusive: 119 nM [cytotoxic, full curve] and inconclusive: 1.18 µM [cytotoxic, full curve]"
same,Potency,[13],"inconclusive: 3290 nM [cytotoxic, full curve]"
CN(C)c1nc(Cc2ccc(NC(=O)c3ccc4ccccc4c3)cc2)nc(Cl)c1CC(=O)O,Potency,[1],"inconclusive: 14.8 µM [cytotoxic, partial curve, poor fit]"
same,Potency,[2],inactive
same,Potency,[14],inactive
same,Potency,[6],inactive
same,Potency,[15],inactive
same,Potency,[10],inactive
same,Potency,[16],inactive
CCCCCOC(=O)Nc1nc(=O)n([C@@H]2O[C@H](C)[C@@H](O)C2O)cc1F (stereo partly drawn),Potency,[1],"inconclusive: 18.7 µM [cytotoxic, partial curve, poor fit]"
same,Potency,[2],inactive
same,Potency,[17],"inconclusive: 20900 nM [cytotoxic, partial curve]"
same,Potency,[18],"inconclusive: 18700 nM [cytotoxic, partial curve, poor fit]"
same,Potency,[7],inactive
same,Potency,[16],"inconclusive: 296 nM [cytotoxic, full curve, poor fit]"
same,Potency,[12],"inconclusive: 14.8 µM [cytotoxic, partial curve, poor fit]"
C=C1c2cccc(O)c2C(O)=C2C(=O)[C@@]3(O)C(O)=C(C(N)=O)C(=O)[C@@H](N(C)C)[C@@H]3[C@@H](O)[C@H]12,Potency,[1],"inconclusive: 29.6 µM [cytotoxic, partial curve, poor fit]"
same,Potency,[2],inactive
same,Potency,[17],"inconclusive: 33200 nM [cytotoxic, single point]"
same,Potency,[14],"inconclusive: 21700 nM [cytotoxic, partial curve]"
same,Potency,[18],"inconclusive: 23500 nM [cytotoxic, single point]"
same,Potency,[5],"inconclusive: 27.1 µM [cytotoxic, single point]"
same,Potency,[8],"inconclusive: 24.3 µM [cytotoxic, partial curve, poor fit]"
same,Potency,[9],inactive
same,Potency,[11],"inconclusive: 20900 nM [cytotoxic, single point]"
same,Potency,[12],"inconclusive: 23.5 µM [cytotoxic, single point]"
COc1ccc(-c2ccc3c(N4CCOC[C@H]4C)nc(N4CCOC[C@H]4C)nc3n2)cc1CO,Potency,[1],"inconclusive: 0.0296 µM [cytotoxic, full curve]"
same,Potency,[2],active: 8.3 nM
same,Potency,[17],active: 4.7 nM
same,Potency,[4],"inconclusive: 74.3 nM [cytotoxic, full curve]"
same,Potency,[18],active: 469 nM
same,Potency,[6],"inconclusive: 2.96 µM [cytotoxic, partial curve, poor fit]"
same,Potency,[8],"inconclusive: 0.0306 µM [cytotoxic, full curve]"
same,Potency,[15],active: 132 nM
same,Potency,[10],active: 37.2 nM
same,Potency,[19],"inconclusive: 74.3 nM [cytotoxic, full curve]"
same,Potency,[12],active: 0.0418 µM
same,Potency,[13],"inconclusive: 737 nM [cytotoxic, full curve]"
CCN(CC)Cc1ccc2cc(COC(=O)Nc3ccc(C(=O)NO)cc3)ccc2c1,Potency,[1],active: 2.96 µM
same,Potency,[20],active: 1480 nM
same,Potency,[17],active: 833 nM
same,Potency,[4],active: 3720 nM
same,Potency,[5],active: 1.52 µM
same,Potency,[19],active: 14800 nM
same,Potency,[11],active: 4690 nM
same,Potency,[12],active: 0.935 µM
same,Potency,[13],inactive
